Laboratory results as given in PubChem BioAssay AID686978 (National Center for Advancing Translational Sciences (NCATS), 2013).
Screen size: about 420,000 compounds; about 64,000 (15%) were called active. The shares of active, inactive and inconclusive entries below differ from those in the screen. Calls come from the whole dose curve; as a rule, active = well fitted inhibition curve with a large enough effect; inconclusive = small, poorly fitted or top-dose-only effect; inactive = flat fitted curve, though single readings scatter. Potencies of inconclusive entries are left out as doubtful fits.

Test: qHTS for Inhibitors of human tyrosyl-DNA phosphodiesterase 1 (TDP1): qHTS in cells in absence of CPT; note: nearly all actives have a fitted effect of over 55% in size
Conditions: DT40 Tdp1-/- hTDP1 cells, no CPT, ATP luminescence, 48 h; activity change, negative = growth inhibition: at 46.2 µM (top of the series) unless noted
How it was run: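 A cellular qHTS used chicken DT40 cells lacking endogenous Tdp1 but carrying stably transfected human TDP1. Compounds were applied without camptothecin, and cell growth kinetics were judged by ATP-dependent luminescence after ≥48 hr.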
% is set by controls: 0 for no effect and ±100 for the full control effect; potency is the fitted concentration of half-maximal effect; tags give direction and shape of the fitted curve.

| Compound | Potency | activity change, negative = growth inhibition |
| --- | --- | --- |
| CC(=O)CSc1ncnc2sc3c(c12)CCCC3 | inconclusive [inhibitor, single point] |  |
| CCCCN1C(=O)C(=O)N(CC(=O)Nc2sc(CC)cc2C(=O)OCC)C1=O | inactive |  |
| CCOC(=O)C1=C(C)NC(=O)NC1c1ccc(N(CC)CC)cc1 (stereo not drawn) | inconclusive [inhibitor, single point] |  |
| COc1ccc(NC(=O)c2cccc3c(-c4cnn(C)c4)coc23)cc1 | active: 23.1 µM |  |
| Cc1ccc(CNC(=S)NC2CCCCC2)cc1 | inconclusive [inhibitor, single point] |  |
| CCN(C[C@H]1N[C@@](Cc2ccccc2)(C(=O)OC)[C@H]2C(=O)N(Cc3ccccc3)C(=O)[C@@H]12)S(=O)(=O)c1ccc(C(C)(C)C)cc1 | active: 16.4 µM |  |
| Cc1cc(=O)oc2ccc(OCc3ccccc3)cc12 | inconclusive [inhibitor, single point] |  |
| COCCNC(=O)C(=O)Nc1ccc2c(c1)N(S(=O)(=O)c1cccs1)CCC2 | active: 1.46 µM |  |
| CCCCCCN1C[C@@H](O)[C@H](n2cc(-c3ccc(F)cc3)nn2)C[C@@H]1c1ccc(OC)cc1 | inconclusive [inhibitor, single point] |  |
| Cc1ccc(C)c(N2CCN(c3ccc(NC(=O)c4cccs4)cc3C(=O)O)CC2)c1 | inconclusive [inhibitor, single point] |  |
| Cc1cc(NCCC(C)C)n2nc(C)c(-c3ccccc3)c2n1 | inconclusive [inhibitor, single point] |  |
| CC(c1ccccc1)C1CC(=O)N(Cc2ccco2)C1=O (stereo not drawn) | active: 20.6 µM |  |
| CN(C)c1ccc(C(=S)N2CCOCC2)cc1Br | inactive |  |
| O=C(CCN1C(=O)C2C3C=CC(C3)C2C1=O)N1CCN(c2ccc([N+](=O)[O-])cc2)CC1 (stereo not drawn) | inconclusive [inhibitor, partial curve] |  |
| Cc1ccc(NC(=O)c2ccc(S(=O)(=O)NCc3cccnc3)cc2)c(C)c1 | inconclusive [inhibitor, single point] |  |
| CCN(C(=O)CN1C(=O)/C(=C/c2ccccc2F)SC1=S)C1CCS(=O)(=O)C1 (stereo not drawn) | inconclusive [inhibitor, single point] |  |
| O=C(Cn1c(=O)n(Cc2nc(-c3ccccc3)no2)c(=O)c2cc3c(cc21)OCO3)Nc1ccc(Cl)cc1 | inconclusive [inhibitor, partial curve] |  |
| COc1ccc2[nH]c(C)c(CCNC(=S)Nc3cccc(C)c3C)c2c1 | active: 20.6 µM |  |
| COc1cc(CC(=O)N2c3ccccc3N=C(c3ccccc3)C2C(=O)NCc2ccccc2)cc(OC)c1 (stereo not drawn) | inconclusive [inhibitor, single point] |  |
| OCc1ccccc1OCCOc1ccc(Cl)c2cccnc12 | inconclusive [inhibitor, partial curve] |  |
| CC(NC(=O)c1ccc2nc(Cc3cccc(Cl)c3)oc2c1)c1ccncn1 (stereo not drawn) | inconclusive [inhibitor, single point] |  |
| O=C(CC(SCCO)c1ccc([N+](=O)[O-])cc1)c1ccco1 (stereo not drawn) | active: 14.6 µM |  |
| COc1ccc(CNC(=O)[C@@H]2CCCN2C(=O)[C@@H]2Cc3ccccc3CN2C(=O)OC(C)(C)C)cc1 | inconclusive [inhibitor, partial curve] |  |

| Compound | Potency | activity change, negative = growth inhibition |
| --- | --- | --- |
| O=C(CSc1n[nH]c(-c2ccco2)n1)N1c2ccccc2Sc2ccccc21 | inconclusive [inhibitor, single point] |  |
| O=C1CCCN1CCCNCC(=O)N1c2ccccc2Sc2ccccc21 | inactive |  |
| O=C(c1ccccc1)N1CCN(c2cc(-c3ccccc3)nc3cc(-c4cccc(Cl)c4)nn23)CC1 | active: 14.6 µM |  |
| COc1cccc(-c2nc3nc(C)cc(C)n3c2Nc2c(C)cccc2C)c1 | inconclusive [inhibitor, single point] |  |
| CCN(CC)CCCNC(=O)c1c(C)oc2ncn(CC(C)C)c(=O)c12 | inactive |  |
| Cc1ccc(NC(=O)c2cc(S(=O)(=O)N3CCCCC3)ccc2N2CCOCC2)cc1S(=O)(=O)N(C)C | inconclusive [inhibitor, single point] |  |
| NC(c1ccccc1)c1csc(NC(=O)Nc2cccc(C(F)(F)F)c2)n1 (stereo not drawn) | inconclusive [inhibitor, single point] |  |
| CCN1C(=O)[C@@H]2[C@@H](c3ccc(SC4CCCCC4)c(OC)c3)N3CCC[C@@]3(C(=O)OC)[C@@H]2C1=O | inconclusive [inhibitor, single point] |  |
| CCCC(=O)NC(c1ccc2c(c1)OCO2)c1cc(Cl)c2cccnc2c1O (stereo not drawn) | active: 3.66 µM |  |
| CCOC(=O)C1CCN(CC(=O)Nc2cc(C)nn2-c2nc3ccccc3s2)CC1 | inconclusive [inhibitor, partial curve, poor fit] |  |
| CCOc1ccc(OCC(=O)OCC(=O)NCC2CCCO2)cc1 (stereo not drawn) | inactive |  |
| COC(=O)Cc1c(O)ccn(CCc2ccc(S(N)(=O)=O)cc2)c1=O | inconclusive [inhibitor, single point] |  |
| O=S(O)CNc1ccc(S(=O)(=O)c2ccc(NCS(=O)O)cc2)cc1 | inactive |  |
| CCc1cc(N2CCOCC2)cc2c1[nH]c1ccccc12 |  | inconclusive: -31.1% [inhibitor] |
| Cc1ccc(C(=O)NCCC2=CCCCC2)cc1S(=O)(=O)N1CCOCC1 | inconclusive [inhibitor, partial curve] |  |
| COc1ccc(CCN(C)C(=O)/C=C/c2c(Cl)nc3ccccn23)cc1OC | inconclusive [inhibitor, single point] |  |
| CCCCN(C)S(=O)(=O)c1cc(-c2nnc3c4ccccc4c(C)nn23)ccc1C | active: 7.31 µM |  |
| Cc1ccc2c(c1)-c1c(ssc1=S)C(C)(C)N2C(=O)CSc1nncn1C | inconclusive [inhibitor, single point] |  |
| O=C(NCc1ccc(C(F)(F)F)cc1)c1ccc(-c2ccc(F)c(F)c2)c2ccoc12 | inconclusive [inhibitor, single point] |  |
| CCS(=O)(=O)NCCc1csc(C)n1 | inactive |  |
| CN(CCOc1ccccc1)C(=O)c1ccc(OC2CCN(C(=O)C3CC3)CC2)cc1 | active: 18.4 µM |  |
| Fc1ccccc1/C=C/c1ccc2ccccc2n1 | inconclusive [inhibitor, partial curve] |  |
| Cc1csc(NC(=O)CSc2nc3[nH]c(=O)cc(O)c3s2)n1 | active: 14.6 µM |  |

| Compound | Potency | activity change, negative = growth inhibition |
| --- | --- | --- |
| CCn1c(=O)n(CC)c2cc(N3CCCC3)c(NC(=O)c3cc(Br)ccc3OC)cc21 | inconclusive [inhibitor, single point] |  |
| CCCOc1ccc(C(=O)N/N=C/c2c[nH]c3ccc(Br)cc23)cc1 | inconclusive [inhibitor, single point] |  |
| COc1ccccc1-n1cnc2cc(C(=O)NC3CCCC3)ccc21 | inconclusive [inhibitor, single point] |  |
| O=C(COC(=O)/C=C/c1cccc(C(F)(F)F)c1)NC(=O)NC1CCCC1 | inactive |  |
| CC(=O)Oc1ccc(OC(C)=O)c2c1CC1(C)OC1(C)C2 (stereo not drawn) | inconclusive [inhibitor, single point] |  |
| CCCOC(=O)c1ccc(NC(=O)COC)cc1 | inconclusive [inhibitor, single point] |  |
| Cc1ccccc1Cn1c(C(C)O)nc2ccccc21 (stereo not drawn) | inconclusive [inhibitor, single point] |  |
| CC1CCc2c(sc(NC(=O)CCCOc3ccc(C(C)(C)C)cc3)c2C(N)=O)C1 (stereo not drawn) |  | inconclusive: -6.85% [inhibitor] |
| COc1ccc(S(=O)(=O)N2CCCC(C(=O)NCc3ccc4c(c3)OCO4)C2)cc1 (stereo not drawn) | inconclusive [inhibitor, single point] |  |
| COc1cc(Br)c(C2CC(=O)Nc3cc(OC)c(OC)c(OC)c32)cc1OC (stereo not drawn) | inconclusive [inhibitor, single point] |  |
| COc1ccc(N(CC(=O)Nc2ccccc2C)S(=O)(=O)c2ccccc2[N+](=O)[O-])c(OC)c1 | inconclusive [inhibitor, single point] |  |
| Cc1ccccc1CN1C(=O)CN(S(C)(=O)=O)CC1(C)C(=O)NC(C)C (stereo not drawn) | inactive |  |
| CCn1c(C)c(C)c2cc(C(=O)NCCCN3CCCC3)ccc21 | inactive |  |
| Cc1[nH]c2ccccc2c1/C=C/c1cc[n+](C)cc1 | active: 0.92 µM |  |
| Cc1c(C)n(Cc2ccccc2)c2ncnc(NCCCO)c12 | inactive |  |
| O=c1c2ccccc2nnn1CSc1nnc(-c2cccs2)n1Cc1ccccc1 | active: 23.1 µM |  |
| O=c1c2ccccc2nc2n1CC/C2=C/N1CCN(c2cccc(C(F)(F)F)c2)CC1 | inconclusive [inhibitor, single point] |  |
| CC(=O)Nc1ccc(S(=O)(=O)NCC(=O)N2CCN(S(=O)(=O)c3cccs3)CC2)cc1 | inactive |  |
| Cn1cc(CN2CCN(c3ccc(Cl)cn3)CC2)c(-c2ccccc2F)n1 | inconclusive [inhibitor, single point] |  |
| CCCc1[nH]c2ccc(C(=O)OC)cc2c1CCC | inconclusive [inhibitor, partial curve] |  |
| Cc1ccc(C(=O)Oc2cccc(NC(=O)c3cccs3)c2)cc1S(=O)(=O)N1CCOCC1 | inconclusive [inhibitor, single point] |  |
| COCCCNCCCOc1ccc(Cl)cc1Br | inconclusive [inhibitor, single point] |  |
